This passage reports binding result and IC50 results from patent US20200407441A1 (I MAB BIOPHARMA US, published 2020).

Assay [1] addresses T1, recombinant GMCSF R alpha protein (R&D Systems) (human, UniProt P15509 23-320, limits assumed).
T1 construct: Bought reagent; also called human GMCSF receptor protein; human GM-CSF receptor
T1 sequence (looked up): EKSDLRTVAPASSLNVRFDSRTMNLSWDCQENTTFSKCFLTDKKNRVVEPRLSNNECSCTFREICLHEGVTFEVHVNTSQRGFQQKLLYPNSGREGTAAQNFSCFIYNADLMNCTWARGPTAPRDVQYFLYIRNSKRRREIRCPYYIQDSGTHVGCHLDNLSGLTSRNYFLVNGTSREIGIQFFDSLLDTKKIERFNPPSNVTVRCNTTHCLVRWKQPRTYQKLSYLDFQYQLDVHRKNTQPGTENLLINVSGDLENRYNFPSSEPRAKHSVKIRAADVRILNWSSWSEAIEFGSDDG
As to the kind of experiment: ELISA, GMCSF R alpha coated at 2 ug/mL.

For assay [2], the target named is T2, Tag1-CD47 (Cisbio HTRF kit) (UniProt Q08722 partial chain).
T2 construct: Kit reagent
The assay can be described thus: HTRF competition: blocks Tag1-CD47 / Tag2-SIRPα interaction (Cisbio).

T2 sequence (Q08722 19-139 limits assumed): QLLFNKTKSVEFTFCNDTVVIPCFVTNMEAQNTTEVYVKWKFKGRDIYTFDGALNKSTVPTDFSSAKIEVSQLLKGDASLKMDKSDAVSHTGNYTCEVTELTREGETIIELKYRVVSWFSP

B1: fusion protein 1F8-GMCSF (other)
light: DIVMTQSPDSLAVSLGERATINCKSSQSVLYSSNNRNYLAWYQQKPGQPPKLLINQASTRASGVPDRFSGSGSGTEFTLIISSLQAEDVAIYYCQQYYTPPLAFGGGTKLEIKRTVAAPSVFIFPPSDEQLKSGTASVVCLLNNFYPREAKVQWKVDNALQSGNSQESVTEQDSKDSTYSLSSTLTLSKADYEKHKVYACEVTHQGLSSPVTKSFNRGEC
heavy: EVQLVESGGGLVKPGGSLRLSCAASGFTFSNAWMNWVRQAPGKGLEWVGRIKRKTDGETTDYAAPVKGRFSISRDDSKNTLYLQMNSLKTEDTAVYYCAGSNRAFDIWGQGTMVTVSS[in this place about 450 residues with a human IgG1 Fc]
notes: also called 1F8-GMCSF fusion protein
Usually IC50 stands for the concentration needed to halve the response being measured. Low readings indicate inhibition by little substance, high ones a need for much substance. As for B1, the binding result in assay [1] is listed as “binds”. In addition, the IC50 in assay [2] was found to be 1.3 nM.
